Reference: PubChem BioAssay (NCATS)
Some of the results follow. The main result of the screen is listed elsewhere. These columns were measured beside it and carry no call. Most of these compounds were active or inconclusive in the main read-out, so they are no random draw. For part of these data: The note in brackets gives the kind of curve behind each potency; many fits are weak.

Key:
[1] = qHTS Assay for Lipid Storage Modulators (AID 1519); details: Drosophila S3 cells, BODIPY lipid droplet/cell ratio, laser cytometry, cells loaded with oleic acid; for AC50: measured here: lipid (BODIPY) channel AC50
Method in brief: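 Cells seeded at 5,000 per well were treated with compounds over a concentration series and loaded with oleic acid (400 uM, as added). Lipid droplet fluorescence (488 nm excitation, 500-530 nm channel) was read by laser-scanning cytometry and normalized to 20 uM Triacsin C.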

[2] = qHTS Validation Assay to Find Inhibitors of Chronic Active B-Cell Receptor Signaling (AID 485345); details: ABC-DLBCL cells, chronic BCR signaling reporter
Method in brief: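 Read-out: ratio of filter-corrected green (IkappaBalpha fusion) to red (native) luciferase signal in doxycycline-induced TMD8 cells after 4 h at 37C. Titration spanned 46 uM–3 nM; Data were normalised to basal cells and 10 uM MG-132 wells.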

[3] = qHTS Assay for Modulators of Human Peripheral Myelin Protein 22 (PMP22) Expression/Activity (AID 1967); details: Cell-based PMP22 reporter, dual-color luciferase ratio
Method in brief: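 Luminescence ratio of Pmp22 promoter-driven green luciferase to EF-alpha-driven red luciferase, in engineered mouse MSC80 Schwann cells, served as read-out. Compounds were incubated 24h; untreated cells defined 0% Activity; curves were classified by r2, magnitude and activity.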

[4] = Nrf2 qHTS screen for inhibitors: Validation (AID 493153); details: A549 ARE-Fluc reporter, 18-24 h; AC50: CellTiter-Fluor fluorescence read, measured here: cytotoxicity CellTiter-Fluor AC50; viability change: measured here: cytotoxicity max response
Method in brief: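 A549 cells carrying an ARE-driven firefly luciferase reporter, in 5% FBS OPTI-MEM, were treated with compounds in concentration-response for 18-24 h at 37°C. Viability was read by CellTiter-Fluor fluorescence, then Nrf2 activity by luciferase luminescence.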

[5] = A High-Content qHTS Against Drug Library for the Identification of Small Molecules that Inhibit DYT1 Early Onset Primary Dystonia-Associated Cell Pathology (AID 1645839); details: HEK293 Flp-In EGFP-delE TorsinA, punctate imaging, 48 h; measured here: cell count cytotoxicity
Method in brief: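 In this high-content image screen, delE TorsinA mislocalization in inducible Flp-In 293 cells is scored as %pathology, with cell count serving as the counterscreen. Compound exposure lasts 48 h under tetracycline induction in reduced-serum medium.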

[6] = qHTS Assay for Inhibitors of PDE-IV (AID 607); details: HEK293 ACTOne CNG channel cells, membrane potential fluorescence; measured here: parental cell counter-screen;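 further: parental cells stimulated with forskolin 10 µM plus RO 20-1724 100 µM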
Method in brief: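 Live HEK293 cells with a modified cyclic nucleotide-gated (CNG) channel report intracellular cAMP via membrane-potential dye fluorescence (ex 535/em 590 nm). Endogenous PDE-IV was targeted. Compounds were tested at up to 22.9 uM final; RO 20-1724 100 uM served as control.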

[7] = S16 Schwann cell PMP22 intronic element beta-lactamase assay (AID 624044); details: S16 rat Schwann cells, PMP22 element beta-lactamase FRET, 24 h; further: nearly all actives have a fitted effect of over 15% in size
Method in brief: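 Rat S16 Schwann cells with beta-Lac driven by a PMP22 intronic element, compound-treated 24 h at 37 °C. LiveBLAzer FRET B/G read: 460 nm normalized to potassium clavulanate vs DMSO; 535 nm FRET as viability; concentration-effect curves classified.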

[8] = qHTS assay for small molecule antagonists of peroxisome proliferator-activated receptor gamma signaling (AID 588537); details: HEK293 PPARg-UAS-bla, beta-lactamase ratio, antagonist mode; measured here: W460 blue channel
Method in brief: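 Inhibitors of agonist-stimulated UAS-bla reporter activity were sought in HEK293 cells; rosiglitazone (50 nM) defined full signal and DMSO baseline. Curves fitted to Hill model gave IC50 and efficacy.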

[9] = measured here: cell count channel max response
[10] = measured here: lipid channel max response
[11] = measured here: CBG/CBR ratio read-out
[12] = measured here: green reporter channel AC50, mouse Pmp22 promoter in mouse Schwann cells
[13] = measured here: red reporter channel AC50, EF-alpha promoter control reporter in MSC80 mouse Schwann cells
[14] = measured here: CBR control luciferase (viability counter)
Tags describe the fitted curve by direction and shape.

For `O=c1oc(Cl)c(Cl)c2ccccc12`, the max response [1, 9] was 38.5%, the max response [1, 10] was 39.2% and the AC50 [2, 11] was 3.66 µM [falling, full curve].

For `NC(N)=NC(=O)Cc1c(Cl)cccc1Cl`, the max response [1, 9] was 55.9%, the max response [1, 10] was 57.1% and the AC50 [3, 12] was 60.1 µM [falling, partial curve]. For the same compound, the AC50 [3, 13] was 67.5 µM [falling, partial curve], the AC50 [2, 14] was 1.03 µM [rising, full curve, poor fit] and the viability change [4] was 1.72%.

For `C=CCc1ccccc1OCC(O)CNC(C)C` (centres undefined), the max response [1, 9] was 54.7%, the max response [1, 10] was 55.8% and the AC50 [3, 12] was 95.3 µM [falling, single point]. For the same compound, the AC50 [3, 13] was 84.9 µM [falling, single point].

For `O=C1NC(=O)c2cc(Nc3ccccc3)c(Nc3ccccc3)cc21`, the max response [1, 9] was 59.6%, the max response [1, 10] was 57.1% and the AC50 [2, 11] was 13 µM [falling, partial curve]. The AC50 [2, 14] was 18.4 µM [falling, single point] and the viability change [4] was -10.2%.

In the case of `CCn1cc(C(=O)O)c(=O)c2cc(F)c(N3CCNC(C)C3)c(F)c21` (centres undefined), the max response [1, 9] was 37%, the max response [1, 10] was 38.1% and the AC50 [3, 12] was 84.9 µM [falling, single point]. For the same compound, the AC50 [3, 13] was 75.7 µM [falling, single point].

In the case of `O=C1C2C=CC=CC2=NC(=S)N1CCN1CCC(=C(c2ccc(F)cc2)c2ccc(F)cc2)CC1` (centres undefined), the max response [1, 9] was 45.4%, the max response [1, 10] was 35.9% and the AC50 [3, 12] was 84.9 µM [falling, single point]. The AC50 [3, 13] was 84.9 µM [falling, single point].

With `CCCn1c(=O)c2[nH]c(-c3ccc(S(=O)(=O)O)cc3)nc2n(CCC)c1=O` the max response [1, 9] was 42.5%, the max response [1, 10] was 41.6% and the AC50 [2, 14] was 0.92 µM [falling, full curve].

For `CC(=O)N[C@H](C(=O)O)C(C)(C)SN=O`, the max response [1, 9] was 41.3%, the max response [1, 10] was 38.2% and the AC50 [2, 14] was 29.1 µM [rising, single point].

With `O=c1[nH]cnc2nc[nH]c12` the AC50 [5] was 35.5 µM [rising, single point].

With `CC(C)(C)c1ccc(S(=O)(=O)/C=C\C#N)cc1` the AC50 [6] was 15.8 µM [rising, partial curve] and the AC50 [1] was 8.91 µM [falling, full curve, poor fit].

For `Cc1ccccc1N=Nc1ccc(N=Nc2c(O)ccc3ccccc23)c(C)c1`, the AC50 [5] was 20 µM [rising, single point].

For `CCN(CC)CCOc1ccc2c(c1)C(=O)c1cc(OCCN(CC)CC)ccc1-2`, the AC50 [5] was 1.41 µM [falling, partial curve, poor fit].

With `C[C@H]1O[C@H](O[C@H]2[C@H](O)[C@@H](O)[C@@H](O[C@H]3[C@H](O)[C@@H](O)[C@H](O)O[C@@H]3CO)O[C@@H]2CO)[C@H](O)[C@@H](O)[C@@H]1N[C@H]1C=C(CO)[C@@H](O)[C@H](O)[C@H]1O` the AC50 [5] was 7.08 µM [falling, partial curve].

In the case of `COc1ccc(NC(=O)c2ccc(-c3ccc(-c4noc(C)n4)cc3C)cc2)cc1OCCN(C)C`, the AC50 [6] was 25.1 µM [rising, single point], the max response [1, 9] was 50.3% and the max response [1, 10] was 65.2%.

With `COc1cc(C2c3cc4c(cc3C(O[C@@H]3OC5COC(c6cccs6)OC5C(O)C3O)C3COC(=O)C23)OCO4)cc(OC)c1O` (some centres undefined) the AC50 [1] was 5.01 µM [falling, partial curve], the AC50 ([7]; measured here: 460 nm blue channel) was 0.446 µM [falling, full curve, poor fit] and the AC50 ([7]; measured here: 530 nm viability channel) was 2.82 µM [rising, partial curve].

For `COc1cccc(Nc2ncc3ncc(=O)n(Cc4cccs4)c3n2)c1`, the AC50 [6] was 10 µM [rising, single point], the max response [1, 9] was -10.9% and the max response [1, 10] was -30.1%.

In the case of `NS(=O)(=O)c1ccc(C(=O)O)cc1`, the AC50 [5] was 31.6 µM [rising, single point].

For `Cc1c(C)n(Cc2ccccc2)c2ccc(C(=O)OCCN(C)C)cc12`, the AC50 [5] was 7.94 µM [falling, partial curve, poor fit].

In the case of `Cn1c(=O)c2c(ncn2C)n(C)c1=O`, the max response [1, 9] was 47.3%, the max response [1, 10] was 48% and the AC50 [8] was 50.1 µM [rising, single point].

With `CN(C/C=C/C#CC(C)(C)C)Cc1cccc2ccccc12` the AC50 [5] was 20 µM [rising, single point].

For `Cc1cccc(C)c1NC(=O)c1cc(S(N)(=O)=O)c(Cl)cc1O`, the AC50 [5] was 6.31 µM [rising, partial curve].
